Laboratory results: the supplement of paper PMC10498489
The campaign covered roughly 2,300 compounds. About 330 (14%) showed activity.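 How the source made its calls: active = median modified Z-score above 1.96; inactive = 1.96 or below.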 The list shows a part of the results, in another mix than the full data.

What follows are molecules tested on HepG2 Srxn1-GFP reporter cells (+30 nM CDDO-Me) (assay: Srxn1-GFP intensity median modified Z-score relative to plate median; higher = stronger NRF2 / oxidative stress reporter activation, active = hit call of the paper). Settings: 10 µM; exposure time: 24h.
Procedure, shortened: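 Values give the median, over replicates, of the modified Z-score of GFP intensity on each plate. HepG2 Srxn1-GFP BAC reporter cells were co-treated for 24 h with an NRF2 activator at 30 nM and compound at 10 μM (≤0.1% DMSO) in three replicate plates, then analysed per cell for cytoplasmic GFP on confocal images with at least 100 cells. Scaling used 1.4826 × median absolute deviation.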
`CC(CCC(=O)O)[C@H]1CCC2C3CC[C@@H]4CCCC[C@]4(C)C3CC[C@@]21C` (stereo not given in full) [euspeclibcmpd1329] was tested, and the “Srxn1-GFP intensity median modified Z-score” value was inactive: 1.64. `COCCCOc1ccnc(C[S+]([O-])c2nc3ccccc3[nH]2)c1C` (stereo not given) [euspeclibcmpd2062] was tested, and the “Srxn1-GFP intensity median modified Z-score” value was inactive: -0.00915. In the case of `COc1cc(C(C)=O)cc(OC)c1O` [euspeclibcmpd1999], the “Srxn1-GFP intensity median modified Z-score” value is reported as inactive: -0.452. For `O=C(CCCCC(=O)Nc1c(I)cc(I)c(C(=O)O)c1I)Nc1c(I)cc(I)c(C(=O)O)c1I` [euspeclibcmpd344], the “Srxn1-GFP intensity median modified Z-score” value was inactive: -0.528. With `CNCC[C@@H](Oc1ccccc1C)c1ccccc1` [euspeclibcmpd762] the “Srxn1-GFP intensity median modified Z-score” value was inactive: -0.064. For `Cc1ccc(C(=O)C(C)CN2CCCCC2)cc1` (stereo not given) [euspeclibcmpd1067], the “Srxn1-GFP intensity median modified Z-score” value was inactive: 1.18. `S=c1[nH]cnc2[nH]cnc12` [euspeclibcmpd183] was tested, and the “Srxn1-GFP intensity median modified Z-score” value was active: 59.5. With `N=C(N)SCCN` [euspeclibcmpd1761] the “Srxn1-GFP intensity median modified Z-score” value was active: 3.8. With `N=C(N)N1CCc2ccccc2C1` [euspeclibcmpd956] the “Srxn1-GFP intensity median modified Z-score” value was inactive: -0.37. `COc1ccc(-c2cc(=O)c3c(O)c(OC)c(OC)c(OC)c3o2)cc1OC` [euspeclibcmpd1564] was tested, and the “Srxn1-GFP intensity median modified Z-score” value was inactive: -0.0509. In the case of `CCCc1nc2c(C)cc(-c3nc4ccccc4n3C)cc2n1Cc1ccc(-c2ccccc2C(=O)O)cc1` [euspeclibcmpd729], the “Srxn1-GFP intensity median modified Z-score” value is reported as active: 3.15. In the case of `CC(C[N+](C)(C)C)OC(N)=O` (stereo not given) [euspeclibcmpd37], the “Srxn1-GFP intensity median modified Z-score” value is reported as inactive: -0.0117. `CN(C)CCN(Cc1ccc(Cl)cc1)c1ccccn1` [euspeclibcmpd1219] was tested, and the “Srxn1-GFP intensity median modified Z-score” value was inactive: -0.833. For `Cc1onc(-c2c(Cl)cccc2Cl)c1C(=O)NC1C(=O)N2C1SC(C)(C)C2C(=O)O` (stereo not given) [euspeclibcmpd2174], the “Srxn1-GFP intensity median modified Z-score” value was inactive: -0.262. In the case of `Cc1c(NC(C)C)c(=O)n(-c2ccccc2)n1C` [euspeclibcmpd1149], the “Srxn1-GFP intensity median modified Z-score” value is reported as inactive: 0.683. For `C=CCOC(=O)C1=C(C)NC(C)=C(C(=O)OCC=C)C1/C=C/c1ccccc1`, the “Srxn1-GFP intensity median modified Z-score” value was active: 4.92. With `COc1c(O)c(C)c(C=CC(C)=CCC=C(C)CCC=C(C)CCC=C(C)CCC=C(C)CCC=C(C)CCC=C(C)CCC=C(C)CCC=C(C)CCC=C(C)C)c(O)c1OC` [euspeclibcmpd1853] the “Srxn1-GFP intensity median modified Z-score” value was inactive: -0.0742. With `NCCS` [euspeclibcmpd667] the “Srxn1-GFP intensity median modified Z-score” value was inactive: 0.465. `c1ccc(C(c2ccccc2)(c2ccccc2)n2ccnc2)cc1` was tested, and the “Srxn1-GFP intensity median modified Z-score” value was inactive: 1.95. With `O=C(CCCN1CCC(O)(c2ccc(Cl)cc2)CC1)c1ccc(F)cc1` [euspeclibcmpd145] the “Srxn1-GFP intensity median modified Z-score” value was inactive: -0.792. With `COc1cc(C=CC(=O)CC(=O)C=Cc2ccc(O)c(OC)c2)ccc1O` [euspeclibcmpd1307] the “Srxn1-GFP intensity median modified Z-score” value was active: 23.5. `COC(=O)c1c(C)c2c(c(C)c1O)OC(=O)c1c(C)c(Cl)c(O)c(Cl)c1O2` [euspeclibcmpd1600] was tested, and the “Srxn1-GFP intensity median modified Z-score” value was active: 12.9. In the case of `Cc1ccc(C)c(OCCCC(C)(C)C(=O)O)c1` [euspeclibcmpd138], the “Srxn1-GFP intensity median modified Z-score” value is reported as inactive: -0.449. With `COc1c2ccoc2cc2oc(C)cc(=O)c12` [euspeclibcmpd1519] the “Srxn1-GFP intensity median modified Z-score” value was inactive: 0.0755. With `COc1ccc(CN(CCN(C)C)c2ncccn2)cc1` [euspeclibcmpd534] the “Srxn1-GFP intensity median modified Z-score” value was inactive: -0.866. For `NCC(=O)CCC(=O)O` [euspeclibcmpd661], the “Srxn1-GFP intensity median modified Z-score” value was inactive: 0.393. `CCCCCCCCNC(C)C(O)c1ccc(SC(C)C)cc1` (stereo not given) [euspeclibcmpd406] was tested, and the “Srxn1-GFP intensity median modified Z-score” value was inactive: -0.258. `CC1=CC2C(CC1=O)C(C)=CCC2C(C)C` (stereo not given) [euspeclibcmpd1509] was tested, and the “Srxn1-GFP intensity median modified Z-score” value was inactive: -0.361. For `NCCCCN` [euspeclibcmpd1490], the “Srxn1-GFP intensity median modified Z-score” value was inactive: 1.1. With `COC(=O)C1=C2C(=O)CC(C)C2C(O[C@@H]2O[C@H](CO)[C@@H](O)[C@H](O)[C@H]2O)OC1` (stereo not given in full) [euspeclibcmpd2225] the “Srxn1-GFP intensity median modified Z-score” value was inactive: -0.236. `CC(=O)OCC(=O)[C@@]1(O)CCC2C3CC=C4CC(=O)CC[C@]4(C)C3[C@@H](O)C[C@@]21C` (stereo not given in full) [euspeclibcmpd151] was tested, and the “Srxn1-GFP intensity median modified Z-score” value was inactive: -0.58. With `O=c1[nH]c2cc(Cl)c(Cl)cc2[nH]c1=O` [euspeclibcmpd2029] the “Srxn1-GFP intensity median modified Z-score” value was inactive: 0.486. In the case of `COc1ccc2c3c1O[C@H]1C[C@@H](O)C=C[C@@]31CCN(C)C2` [euspeclibcmpd2292], the “Srxn1-GFP intensity median modified Z-score” value is reported as inactive: 0.484. For `CON=C1CN(c2nc3c(cc2F)c(=O)c(C(=O)O)cn3C2CC2)CC1CN` (stereo not given) [euspeclibcmpd871], the “Srxn1-GFP intensity median modified Z-score” value was inactive: -0.00523. For `C=C[C@](C)(O)CC[C@@H]1[C@@]2(C)CCCC(C)(C)[C@@H]2CC[C@]1(C)O` [euspeclibcmpd2213], the “Srxn1-GFP intensity median modified Z-score” value was active: 2.3. In the case of `CC[N+](CC)(CC(=O)Nc1c(C)cccc1C)Cc1ccccc1` [euspeclibcmpd901], the “Srxn1-GFP intensity median modified Z-score” value is reported as inactive: 0.215. With `C=C(C)[C@H]1COc2cc3oc(=O)ccc3cc2O1` [euspeclibcmpd1602] the “Srxn1-GFP intensity median modified Z-score” value was inactive: -0.277. `COc1ccccc1-c1cc(=O)c2c(OC)cccc2o1` [euspeclibcmpd2107] was tested, and the “Srxn1-GFP intensity median modified Z-score” value was active: 2.2. In the case of `CN1CCN(CC(=O)N2c3ccccc3C(=O)Nc3cccnc32)CC1` [euspeclibcmpd395], the “Srxn1-GFP intensity median modified Z-score” value is reported as inactive: -0.0943. For `CC(=O)N(CC(O)CO)c1c(I)c(C(=O)NCCO)c(I)c(C(=O)NCC(O)CO)c1I` (stereo not given) [euspeclibcmpd589], the “Srxn1-GFP intensity median modified Z-score” value was inactive: -0.168. In the case of `CC1(C)O[C@H]2CC(=O)OC[C@]23[C@H]2CC[C@@]4(C)[C@H](c5ccoc5)OC(=O)C5O[C@]54[C@]2(C)C(=O)C[C@@H]13` (stereo not given in full) [euspeclibcmpd1497], the “Srxn1-GFP intensity median modified Z-score” value is reported as inactive: 0.563. `COc1ccc2[nH]c3cc(Cl)ccc3c(=Nc3cc(CN4CCCC4)c(O)c(CN4CCCC4)c3)c2n1` [euspeclibcmpd1080] was tested, and the “Srxn1-GFP intensity median modified Z-score” value was active: 9.12. For `CC1=NS(=O)(=O)c2cc(Cl)ccc2N1` [euspeclibcmpd950], the “Srxn1-GFP intensity median modified Z-score” value was inactive: -0.78. `NC(Cn1ccc(=O)c(O)c1)C(=O)O` (stereo not given) [euspeclibcmpd1811] was tested, and the “Srxn1-GFP intensity median modified Z-score” value was inactive: -0.0137. With `Cn1cc[nH]c1=S` [euspeclibcmpd188] the “Srxn1-GFP intensity median modified Z-score” value was inactive: -0.287. With `O=C(O)CCCCCCCCCCCCC1C=CCC1` (stereo not given) [euspeclibcmpd1516] the “Srxn1-GFP intensity median modified Z-score” value was active: 10.6. For `CCC1(c2ccccc2)C(=O)NCNC1=O` [euspeclibcmpd245], the “Srxn1-GFP intensity median modified Z-score” value was inactive: 0.413. `Oc1c(Cl)cc(Cl)c2cccnc12` [euspeclibcmpd537] was tested, and the “Srxn1-GFP intensity median modified Z-score” value was active: 2.82. For `CN(C)CCC(c1ccc(Br)cc1)c1ccccn1` (stereo not given) [euspeclibcmpd2105], the “Srxn1-GFP intensity median modified Z-score” value was inactive: -0.111. For `C[C@@](Cc1ccc(O)c(O)c1)(NN)C(=O)O` [euspeclibcmpd440], the “Srxn1-GFP intensity median modified Z-score” value was inactive: 0.573. For `CCCCC(CC)COC(=O)CC(C(=O)OCC(CC)CCCC)S(=O)(=O)O` (stereo not given) [euspeclibcmpd1827], the “Srxn1-GFP intensity median modified Z-score” value was inactive: -0.295. With `Clc1ccc2c(c1)CCc1cccnc1C2=C1CCNCC1` [euspeclibcmpd2172] the “Srxn1-GFP intensity median modified Z-score” value was inactive: 0.635. For `Clc1ccc2c(c1)CCc1cccnc1C2=C1CCNCC1` [euspeclibcmpd2207], the “Srxn1-GFP intensity median modified Z-score” value was inactive: 1.43. For `O=C1NCC2(CCN(CCc3ccccc3)CC2)O1` [euspeclibcmpd372], the “Srxn1-GFP intensity median modified Z-score” value was inactive: -0.351. In the case of `CO[C@H]1CC(O[C@@H]2/C(C)=C/C[C@@H]3C[C@@H](C[C@]4(CC[C@H](C)[C@@H](C5CCCCC5)O4)O3)OC(=O)C3=CC(C)C(=NO)C4OC/C(=C\C=C\[C@@H]2C)[C@@]34O)O[C@@H](C)C1O` (stereo not given in full) [euspeclibcmpd601], the “Srxn1-GFP intensity median modified Z-score” value is reported as active: 8.72. For `CCCCCCCCCCOc1cc2c(=O)c(C(=O)OCC)c[nH]c2cc1OCC` [euspeclibcmpd775], the “Srxn1-GFP intensity median modified Z-score” value was inactive: 0. With `CCN(CC)C(=O)c1ccc(O)c(OC)c1` [euspeclibcmpd904] the “Srxn1-GFP intensity median modified Z-score” value was inactive: 0.0293. For `O=C(c1ccc(F)cc1)C1CCN(CCn2c(=O)[nH]c3ccccc3c2=O)CC1` [euspeclibcmpd750], the “Srxn1-GFP intensity median modified Z-score” value was inactive: 0.369. `CNCCc1ccccn1` [euspeclibcmpd332] was tested, and the “Srxn1-GFP intensity median modified Z-score” value was inactive: 0.673. `CC=CC(=O)N(CC)c1ccccc1C` [euspeclibcmpd735] was tested, and the “Srxn1-GFP intensity median modified Z-score” value was inactive: -0.287. With `CC(=O)NC1C(O)OC(CO)C(O)C1O` (stereo not given) [euspeclibcmpd1995] the “Srxn1-GFP intensity median modified Z-score” value was inactive: -0.204. For `CC(=O)OC/C=C(\C)CC/C=C(\C)CC/C=C(\C)CC/C=C(\C)CC/C=C(\C)CC/C=C(\C)CC/C=C(\C)CC/C=C(\C)CCC=C(C)C` [euspeclibcmpd1594], the “Srxn1-GFP intensity median modified Z-score” value was inactive: -0.267. For `NCCCCCC(=O)O` [euspeclibcmpd19], the “Srxn1-GFP intensity median modified Z-score” value was inactive: 0.118. In the case of `CCN(CC)C(C)CN1c2ccccc2Sc2ccccc21` (stereo not given) [euspeclibcmpd123], the “Srxn1-GFP intensity median modified Z-score” value is reported as inactive: 0.0767. With `CCCNC(=O)NS(=O)(=O)c1ccc(Cl)cc1` [euspeclibcmpd60] the “Srxn1-GFP intensity median modified Z-score” value was inactive: -0.231. For `CC1(C)CC2C1CC[C@]1(C)CCC3C(C(=O)O)CC(=O)O[C@@]32C1` (stereo not given in full) [euspeclibcmpd1368], the “Srxn1-GFP intensity median modified Z-score” value was inactive: -0.0835. For `Clc1cccc(Cl)c1NC1=NCCN1` [euspeclibcmpd70], the “Srxn1-GFP intensity median modified Z-score” value was inactive: -0.00531. For `O=C(O)CN(CCN(CC(=O)O)CC(=O)O)CC(=O)O`, the “Srxn1-GFP intensity median modified Z-score” value was active: 2.26. For `CCN(CC)CCOCCOC(=O)C1(c2ccccc2)CCCC1` [euspeclibcmpd389], the “Srxn1-GFP intensity median modified Z-score” value was inactive: -0.0174. In the case of `CCN(CCCCOC(=O)c1ccc(OC)c(OC)c1)C(C)Cc1ccc(OC)cc1` (stereo not given) [euspeclibcmpd380], the “Srxn1-GFP intensity median modified Z-score” value is reported as inactive: 0.0677. `Cc1cc(C(C)(C)C)cc(C)c1CC1=NCCN1` [euspeclibcmpd322] was tested, and the “Srxn1-GFP intensity median modified Z-score” value was inactive: -0.608. For `CC(=O)Nc1ccc(OC(=O)c2ccccc2O)cc1` [euspeclibcmpd1988], the “Srxn1-GFP intensity median modified Z-score” value was inactive: -0.258. With `O=c1c(O)c(-c2ccc(O)cc2)oc2cc(O)cc(O)c12` [euspeclibcmpd2425] the “Srxn1-GFP intensity median modified Z-score” value was inactive: -0.0385. `O=C(CCBr)N1CCN(C(=O)CCBr)CC1` [euspeclibcmpd576] was tested, and the “Srxn1-GFP intensity median modified Z-score” value was active: 2.59. `COc1cc(OC)c2ccc(=O)oc2c1` [euspeclibcmpd1704] was tested, and the “Srxn1-GFP intensity median modified Z-score” value was inactive: 0.0648.
